Source: patent US20120071493A1, “SUBSTITUTED 8-SULFONYL-2,3,4,5-TETRAHYDRO-1H-GAMMA-CARBOLINES, LIGANDS AND PHARMACEUTICAL COMPOSITION; METHOD FOR THE PRODUCTION AND USE OF SAME” (priority 2009, published 2012)
Read-outs that look alike come from different tables or passages of the source.

System: Mice of SHK line
[1] = 1 mg/kg subcutaneously 60 minutes before the test

SMILES | effect on disturbance of prepulse inhibition of startle caused by Apomorphine [1] | effect on disturbance of prepulse inhibition of startle caused by Apomorphine (1 mg/kg intraperitoneally 60 minutes before the test)
CN1CCc2c(c3cc(S(=O)(=O)c4ccccc4)ccc3n2C)C1.Cl [1.1.1(4)•HCl, 2,5-dimethyl-8-(phenylsulfonyl)-2,3,4,5-tetrahydro-1H-γ-carboline hydrochloride] | prevented disturbance of prepulse inhibition of startle | –
CN1CCc2[nH]c3ccc(S(=O)(=O)Nc4cccc(F)c4)cc3c2C1.Cl [1.2.1(3)•HCl, 2-methyl-2,3,4,5-tetrahydro-1H-γ-carboline-8-sulfonic acid 3-fluorophenyl amide hydrochloride] | prevented disturbance of prepulse inhibition of startle | –
O=C(CCCN1CCC(O)(c2ccc(Cl)cc2)CC1)c1ccc(F)cc1 [Haloperidol, reference compound] | – | prevented disturbance of prepulse inhibition of startle
